Results from PubChem BioAssay AID1460 (National Center for Advancing Translational Sciences (NCATS), 2008).
Hit rate of the full screen: of about 270,000 compounds, about 5,800 (2.1%) were called active. Inconclusive results, whose numbers are uncertain, are shown with a selection of clear calls. Calls come from the whole dose curve; as a rule, active = well fitted inhibition curve with a large enough effect; inconclusive = small, poorly fitted or top-dose-only effect; inactive = flat fitted curve, though single readings scatter. A potency beside an inconclusive call is a rough fit, not a confirmed value.

target: Microtubule-associated protein tau (Homo sapiens) (UniProt P10636); assay: qHTS for Inhibitors of Tau Fibril Formation, Thioflavin T Binding; conditions: recombinant tau K18 P301L (four-repeat tau fragment), heparin-induced fibrillization, ThT fluorescence; series mostly up to 57.4 µM; note: nearly all actives have a fitted effect of over 55% in size
Sequence of UniProt P10636 (P10636 whole entry, looked up, the tested form may be a part): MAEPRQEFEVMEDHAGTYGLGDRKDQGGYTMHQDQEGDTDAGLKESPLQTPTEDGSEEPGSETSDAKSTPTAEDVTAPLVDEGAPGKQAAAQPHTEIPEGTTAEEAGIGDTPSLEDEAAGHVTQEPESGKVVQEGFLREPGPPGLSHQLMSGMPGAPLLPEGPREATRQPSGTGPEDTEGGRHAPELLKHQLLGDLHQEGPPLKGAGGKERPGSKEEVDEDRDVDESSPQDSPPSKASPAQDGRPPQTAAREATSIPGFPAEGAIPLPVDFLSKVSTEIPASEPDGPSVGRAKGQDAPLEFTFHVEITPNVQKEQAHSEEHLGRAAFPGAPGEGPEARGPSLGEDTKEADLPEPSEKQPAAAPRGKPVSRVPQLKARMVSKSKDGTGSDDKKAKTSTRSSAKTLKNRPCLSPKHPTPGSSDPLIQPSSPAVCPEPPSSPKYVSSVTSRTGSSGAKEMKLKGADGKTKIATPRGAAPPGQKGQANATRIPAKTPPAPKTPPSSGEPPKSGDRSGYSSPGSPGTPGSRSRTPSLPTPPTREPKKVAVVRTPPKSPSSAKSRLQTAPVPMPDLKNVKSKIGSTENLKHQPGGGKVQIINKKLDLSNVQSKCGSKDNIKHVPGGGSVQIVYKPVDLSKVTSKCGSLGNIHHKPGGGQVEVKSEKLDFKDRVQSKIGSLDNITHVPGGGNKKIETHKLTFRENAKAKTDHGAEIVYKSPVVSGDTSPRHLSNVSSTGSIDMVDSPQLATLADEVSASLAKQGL
Summary of the method: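 Recombinant human tau K18 fragment […] carrying P301L, 15 uM unlabeled plus 0.24 uM Alexa 594-labeled, was fibrillized with 20 uM heparin in 100 mM sodium acetate pH 7 for 6 hr at 37 C; 30 uM ThT fluorescence read after 1 hr.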
Potency is the fitted concentration of half-maximal effect; tags give direction and shape of the fitted curve.

| SMILES | Potency |
| --- | --- |
| CCN(CC)C(=O)N1CCN(C(=O)N(CC)CC)CC1 | inactive |
| C/C(=N/NC(=O)c1ccc(C)s1)c1cccc(NC(=O)COc2ccc(Cl)cc2C)c1 | inconclusive: 5.01 µM [inhibitor, partial curve] |
| Cc1sc(NC(=O)c2ccco2)nc1-c1ccc2c(c1)CC(C)N2C(=O)C1CC1 (stereo unspecified) | inconclusive: 28.2 µM [inhibitor, partial curve] |
| COc1cccc(NCCC(=O)c2cccc([N+](=O)[O-])c2)c1 | inconclusive: 14.1 µM [inhibitor, partial curve] |
| COC(=O)c1cccc(NC(=O)NC23CC4CC(CC(C4)C2)C3)c1 | inactive |
| CC(C)(C)c1ccc(OCC(=O)NNC(=S)NC(=O)c2ccccc2[N+](=O)[O-])c(Br)c1 | inconclusive: 15.8 µM [inhibitor, partial curve] |
| Cc1cc2ccccc2c(=O)n1CC(=O)NCC(=O)N1CCN(c2cccc(Cl)c2)CC1 | inconclusive: 25.1 µM [inhibitor, partial curve] |
| CC(=O)c1c(-c2ccc(C)cc2)nc2c3ccccc3ccn12 | inconclusive: 28.2 µM [inhibitor, single point] |
| CC(C)(C)C(=O)Cn1c(=O)n(-c2ccccc2)c(=O)c2c3c(sc21)CCC3 | inactive |
| C=CCc1ccccc1OCc1nc2ccccc2n1CC | inconclusive: 17.8 µM [inhibitor, partial curve] |
| CN=C1S/C(=C\c2ccc(N3CCOCC3)cc2C)C(=O)N1C | inactive |
| Cc1ccc2oc3c(c(=O)c2c1)C(c1ccc([N+](=O)[O-])cc1)N(CCCN1CCOCC1)C3=O (stereo unspecified) | inactive |
| CN(C)/C=C1/C(=O)Nc2ccccc21 | inactive |
| CCCC1O[C@@H]2C[C@H]3[C@@H]4CCC5=CC(=O)C=C[C@]5(C)C4[C@@H](O)C[C@]3(C)[C@]2(C(=O)CO)O1 (stereo partly specified) | inactive |
| O=C(Cn1ncc(Cl)c(Cl)c1=O)N1CCN(S(=O)(=O)c2ccc3ccccc3c2)CC1 | inconclusive: 17.8 µM [inhibitor, partial curve] |
| COc1ccc(-c2nnc3ccc(SC(C(C)=O)C(C)=O)nn23)cc1OC | inactive |
| CCn1c(-c2ccc(N(C)C)cc2)nc2ccccc21 | inconclusive: 7.94 µM [inhibitor, partial curve] |
| O=C(/C=C/c1ccc(S(=O)(=O)N2CCOCC2)cc1)NC(=S)NCCCn1ccnc1 | inconclusive: 17.8 µM [inhibitor, single point] |
| O=C(c1cccnc1)N1CCN(Cc2cccc(Br)c2)CC1 | inactive |
| Cc1ccc(C)n1-c1ccc(N2CCOCC2)c([N+](=O)[O-])c1 | inconclusive: 11.2 µM [inhibitor, partial curve] |
| COc1ccc(Nc2nc(NCc3ccco3)nc(N/N=C/c3ccccc3)n2)cc1 | inconclusive: 12.6 µM [inhibitor, partial curve] |

| SMILES | Potency |
| --- | --- |
| CC1CCN(S(=O)(=O)c2ccc(NC(=O)Cn3nnc(-c4ccccc4F)n3)cc2)CC1 | inactive |
| COc1cc(C2Nc3ccccc3C(=O)N2c2ccccc2)ccc1O (stereo unspecified) | inconclusive: 25.1 µM [inhibitor, partial curve] |
| Nc1ccc(S(=O)(=O)NC2=NCCCCC2)cc1N | inconclusive: 15.8 µM [inhibitor, single point] |
| COc1ccc(OC(C)C(=O)N2CCc3ccccc3C2)cc1 (stereo unspecified) | inactive |
| Nc1nc(SCC(=O)Nc2ccccc2)nc2nc3c(cc12)CCCC3 | inconclusive: 14.1 µM [inhibitor, partial curve] |
| CC(C)C(=O)NC(=S)Nc1sc2c(c1C(N)=O)CCCC2 | inconclusive: 14.1 µM [inhibitor, partial curve] |
| O=C(Cc1ccc(-n2c(=O)[nH]c3ccsc3c2=O)cc1)N1CCN(c2ccc(Cl)cc2)CC1 | inconclusive: 14.1 µM [inhibitor, partial curve] |
| O=C(CSc1nc2ccccc2s1)NCCOc1ccc(Cl)cc1 | inconclusive: 35.5 µM [inhibitor, partial curve] |
| CCn1cc(/C=N/NC(=O)c2ccc(C#N)cc2F)c2ccccc21 | inconclusive: 35.5 µM [inhibitor, partial curve] |
| O=C(Nc1ccc(N2CCN(C(=O)c3ccc(Cl)cc3)CC2)cc1)c1ccc2c(c1)OCCO2 | inconclusive: 8.91 µM [inhibitor, partial curve] |
| CC(C)(C)OC(=O)[C@H]1[C@H](c2ccc([N+](=O)[O-])cc2)C2(C(=O)c3ccccc3C2=O)C2c3ccccc3C=NN21 (stereo partly specified) | inconclusive: 35.5 µM [inhibitor, single point] |
| CC(=O)c1cccc(NC(=O)C(=O)c2cn(CC(=O)N3CCCCC3)c3ccccc23)c1 | inconclusive: 10 µM [inhibitor, partial curve] |
| CCc1cccc(NC(=O)Cn2c(=O)oc3cc(S(=O)(=O)N4CCOCC4)ccc32)c1 | inactive |
| COc1ccc(CCN(C)c2ccc(C(N)=O)cc2[N+](=O)[O-])cc1OC | inconclusive: 14.1 µM [inhibitor, partial curve, poor fit] |
| CCOc1ccc(C(=O)Nc2cccc(NC(=O)c3ccc(C(C)(C)C)cc3)c2)cc1Br | inconclusive: 2.82 µM [inhibitor, partial curve, poor fit] |
| Clc1cc2c(cc1/C=N/Nc1nc(N3CCOCC3)nc(N3CCOCC3)n1)OCO2 | inconclusive: 20 µM [inhibitor, partial curve] |
| O=C(CCn1c2c(c3ccccc31)CCCC2)NNC(=O)c1ccc([N+](=O)[O-])cc1 | inconclusive: 15.8 µM [inhibitor, partial curve] |
| COc1ccc(O)c(/C=N/NC(=O)c2ccc(OCc3cccc(Br)c3)cc2)c1 | inconclusive: 1 µM [inhibitor, full curve] |
| COc1ccc(OCC(=O)OCc2cc(=O)n3nc(-c4cccs4)sc3n2)cc1 | inconclusive: 3.98 µM [inhibitor, partial curve, poor fit] |
| CCOc1ccccc1NC1=C(Cl)C(=O)N(c2ccccc2)C1=O | inconclusive: 14.1 µM [inhibitor, partial curve, poor fit] |
